Test results from ChEMBL document CHEMBL4888484, “Replenishing the malaria drug discovery pipeline: Screening and hit evaluation of the MMV Hit Generation Library 1 (HGL1) against asexual blood stage Plasmodium falciparum ,using a nano luciferase reporter read-out” (2022).
Screen size: about 150,000 compounds; about 540 (0.36%) showed an effect of 50% or more. The list shows a part of the results.

system: Plasmodium falciparum; experiment: Primary screen in NF54 nanoGlo assay, in single point, at 2uM, 72h; a lower Z score goes with more inhibition; format: functional, Erythrocyte; details: timepoint 72 hour

| Structure (SMILES) | % Inhibition | Z score |
| --- | --- | --- |
| CC(C)(CO)CNC(=O)c1cc(COc2cccc3cccnc23)on1 | -3% | 0.39 |
| COc1cc(C)c(-c2ccc(C(=O)N(C)Cc3cc(C)no3)cc2)cn1 | 2% | -0.45 |
| COC(=O)c1nc(NC(=O)Cn2cnnn2)sc1CC(C)C | 0% | 0.08 |
| Cc1ccc2oc(N3CCC(N4CCOCC4)CC3)nc2c1 | -2% | 0.29 |
| CCn1c(=O)c2sccc2n(CC(=O)NC2CCCCC2)c1=O | -8% | 1.2 |
| COCCn1nnnc1NC(=O)c1ccoc1Cl | 4% | -0.77 |
| CC(C)(C)c1ccc(C(=O)N2CC[C@H](Oc3ncc(Br)cn3)C2)cc1 | -6% | 0.88 |
| O=C(Cc1ccc(F)c(Br)c1)NCCCC1(C2OCCO2)CCOCC1 | 1% | -0.18 |
| Cc1nc(C)c([C@H](C)NC(=O)NCC2CC2)s1 | 0% | 0.03 |
| Cc1ccc(C2Nc3ccccc3C(=O)N2CC2CCCO2)o1 (stereo not drawn) | -44% | 5.12 |
| COc1ccc(OC)c(CN2CCc3nc(N4CCCC4)ncc3C2)c1 | -3% | 0.5 |
| c1ccc(-c2nnc(N3CCC(NCCCn4ccnn4)CC3)s2)cc1 | 10% | -1.38 |
| CC[C@H]1C[C@@H](NC(C)=O)C[C@@H](c2ccc(O)cc2)O1 | -10% | 1.21 |
| C[C@@H](CN1CCN(c2ccccc2)CC1)Nc1cc(C(N)=O)ccn1 | -4% | 0.79 |
| CC(C)N1C[C@H]2CN(C(=O)CCCc3ccccc3)C[C@@]2(C(=O)N(C)C)C1 | -19% | 2.57 |
| C[C@H]1CCCCN1CCNC(=O)c1ccc2c(c1)nc1n2CCN(Cc2ccccn2)C1=O | -1% | 0.12 |
| COc1cc(C(=O)N2CCC[C@H](C(=O)c3nccn3C)C2)ccn1 | -15% | 1.93 |
| Cc1cc(C(C)NC(=O)C(NS(C)(=O)=O)C(C)(C)C)c(C)s1 (stereo not drawn) | -4% | 0.62 |
| Cc1cccc(N(CC(C)(C)C)C(=O)[C@H]2CCc3nc(C)nn3C2)n1 | 2% | -0.21 |
| Cc1cnc(C(=O)Nc2cccc3ccccc23)cn1 | -7% | 0.94 |
| C[C@@H](Cc1ccccc1F)NC(=O)c1ccc2c(c1)OCO2 | -10% | 1.47 |

| Structure (SMILES) | % Inhibition | Z score |
| --- | --- | --- |
| Cc1cccc(Cl)c1OCCNC(=O)c1cc(-c2ccc(O)cc2)n[nH]1 | -3% | 0.41 |
| Cc1cccc(-c2noc(-c3sc(-c4ccccc4)nc3C)n2)c1 | 0% | 0.03 |
| O=C1CC2(CCN(C(=O)N3CCOCC3)CC2)CN1C/C=C/c1ccccc1 | 1% | -0.14 |
| C[C@H]1[C@@H](C(F)(F)F)OCCN1C(=O)NC1CCC(=O)NC1C1CCCO1 (stereo partly drawn) | -14% | 1.95 |
| COc1ccccc1CNC(=O)c1ccc(-c2ccsc2)nc1 | -2% | 0.22 |
| O=C(Nc1ccc(Oc2ccccc2)cc1)c1ccc2c(c1)OCO2 | 2% | -0.25 |
| CC(C(=O)N[C@H](C)C1CCN(c2ncnc3c2ncn3C)CC1)=C1CCCC1 | -1% | 0.14 |
| COc1ccc(NC(=O)CCc2c(C)nn(-c3ccc4nnc(C)n4n3)c2C)c(OC)c1 | 6% | -0.74 |
| COc1ccccc1NC(=O)[C@H]1O[C@@H]2OC3(CCCCC3)O[C@@H]2[C@H]2OC3(CCCCC3)O[C@H]21 | -6% | 0.93 |
| CN(C(=O)c1cc(C2CC2)[nH]n1)C1CCCCC1 | -9% | 1.33 |
| CCc1ccc(-n2nnc(C(=O)NCc3ccccn3)c2-c2cccnc2)cc1 | -5% | 0.48 |
| COc1ccccc1C(=O)Nc1cnc2c(c1)CCC2 | -6% | 0.95 |
| Cc1nccnc1N1CCO[C@H](c2ccsc2)C1 | -11% | 1.39 |
| CC(C)(C)c1noc(CCC(=O)N[C@@H](CC(=O)O)c2ccccc2Cl)n1 | -10% | 1.17 |
| CC(=O)N(c1nc(C)c(C(=O)Nc2nnc(C3CC3)s2)s1)C1CCCC1 | -19% | 2.44 |
| COc1ccccc1COc1cc(NC(=O)Cn2cncn2)ncn1 | -11% | 2.17 |
| NC(=O)[C@H]1CCCN(C(=O)c2ccc(-c3ccc4c(c3)OCC4)cc2)C1 | 10% | -1.23 |
| Cc1noc(C)c1S(=O)(=O)N1CCC(CO)(CCCc2ccccc2)CC1 | -8% | 1.6 |
| CCCC(=O)N1CCN(c2nc(Cc3ccc(C)cc3)nc3c2cnn3-c2ccccc2)CC1 | -20% | 2.07 |
| Fc1ccc(CCN2CCc3nc(C4CC4)ncc3C2)cc1F | -7% | 0.94 |
| Cc1ccc2nc(CN3CCc4nocc4C3)cn2c1 | 2% | -0.41 |

| Structure (SMILES) | % Inhibition | Z score |
| --- | --- | --- |
| CCCNC(=O)c1ccc(-c2ccc(N3CCCC3)nn2)cc1 | 16% | -1.89 |
| Cc1[nH]c(=O)n(C(C)(C)C)c(=O)c1Br | -10% | 1.58 |
| Cc1nn(C)c2nc(NCC3(N4CCCC4)CCCC3)sc12 | -11% | 2.07 |
| COc1ccc(CCC(=O)N2CC[C@H](CCOc3ccc(C)cc3)C2)cc1 | 3% | -0.55 |
| O=C(NCCc1noc(C2CCC2)n1)N1CCCC[C@H]1c1ccc(F)cc1 | -6% | 0.6 |
| O=C(Nc1ccnn1C1CCCC1)[C@H]1CC(=O)N(c2ccc(F)c(F)c2)C1 | -3% | 0.29 |
| COc1cccc(CN/C(=N/c2ccc(C(=O)O)cc2)N2CCN(c3ccccc3F)CC2)c1 | -6% | 0.63 |
| COCCn1cncc1CNC(=O)[C@H]1CC12CCCCC2 | -15% | 2.43 |
| CN(C)[C@H]1CCN(C(=O)c2coc(COc3ccc(F)cc3)n2)C1 | -5% | 0.72 |
| CC(C)CC(=O)Nc1nnc(-c2ccc3c(c2)OCO3)s1 | -4% | 0.45 |
| CCOC(=O)c1cc(C(=O)Nc2cc(C)n(Cc3ccc(Cl)cc3Cl)n2)n(C)n1 | -8% | 1 |
| COC(CN1CCC[C@H](N2CCCCC2)C1)OC | 10% | -1.4 |
| CN1CCN(C(C)(C)CNC(=O)Cn2nnc3ccccc32)CC1 | 7% | -1.23 |
| CCN1CN(S(=O)(=O)c2c[nH]c3cccc(F)c23)CC1=O | 7% | -1.01 |
| Cc1cc(C(=O)N2CCS(=O)(=O)CC2)c(C)n1-c1ccc(C(C)C)cc1 | -3% | 0.33 |
| COc1ccc(CN2C(=O)CC[C@@]2(C)C(=O)NC2CCCCCC2)c(OC)c1 | 2% | -0.32 |
| O=C(Nn1cnnc1)c1ccc(Oc2ccccc2)o1 | 17% | -2.18 |
| CC(C)c1cccc(/N=C(\NCc2ccccn2)NC(=O)c2cccc(F)c2)c1 | -4% | 0.68 |
| O=C(N[C@H]1COc2ccccc2C1=O)c1[nH]nc2c1CCCC2 | -14% | 1.82 |
| CC1CN(S(=O)(=O)c2ccc3c(c2)OCCCO3)C(C)CO1 (stereo not drawn) | -11% | 1.58 |
| CC(=O)N(C)CC=Cc1ccc(Br)cc1 | -9% | 1.06 |

| Structure (SMILES) | % Inhibition | Z score |
| --- | --- | --- |
| CCCN(CCC)S(=O)(=O)N1CCN(Cc2ccnc(N)c2)CC1 | -2% | 0.29 |
| Cc1ccc(Oc2nc(N3CCCCC3)nc3c2CN(Cc2ccccc2Cl)CC3)cc1 | -1% | 0.19 |
| CC(C)(C)OC(=O)CN1CCC[C@@H]1COC(=O)c1ccccc1F | -7% | 0.76 |
| Cc1cc(F)cc(-n2cc(NC(=O)CCS(C)(=O)=O)nn2)c1 | -9% | 1.14 |
| Cc1ccc(NC(=O)c2csc(-c3ccnc(N4CCOCC4)c3)n2)c(C)c1 | -10% | 1.33 |
| Cc1cc(C)cc(OCC(=O)N2CCCC[C@@H]2CCN2CCCCCC2)c1 | -1% | 0.07 |
| CCCc1cnc(NC(=O)c2ccc(C)[nH]c2=O)s1 | -1% | 0.16 |
| CCCc1c(C(=O)Nc2csnc2OC)cnn1C1CCCC1 | -9% | 1.01 |
| CS(=O)(=O)N1CCCC[C@H]1c1nc(-c2ccccn2)no1 | -10% | 1.22 |
| Cc1cc(C)c(C(=O)N[C@@H](C)CC(=O)O)s1 | 9% | -1.46 |
| O=C1[C@@H](N2CCOCC2)CCCN1Cc1c(F)cccc1Cl | -3% | 0.46 |
| Cc1cc(C)c(Br)c(C(=O)NC(C)(C)C(N)=O)c1 | -11% | 2 |
| O=C1NC2(CC2)C(=O)N1CCc1ccccc1OC(F)(F)F | -10% | 1.57 |
| COC(=O)[C@@]1(C)N[C@@H](c2ccc(F)cc2C)[C@H]2C(=O)N(C)C(=O)[C@H]21 | -4% | 0.5 |
| CC(C)C[C@@H](NC(=O)[C@H]1CC[C@H](CNC(=O)[C@@H](N)C(C)C)CC1)C(=O)O | 2% | -0.3 |
| C=CCNC(=O)N1CCc2nc(N3CCCCC3)nc(N3CCC(C)CC3)c2C1 | -13% | 1.65 |
| Cc1cc(Cl)c(C(=O)NS(=O)(=O)CCCC#N)cc1C | 12% | -1.34 |
| O=C(NCCc1cccs1)N1CCC([C@H](O)C(F)(F)F)CC1 | -10% | 1.78 |
| COc1cccc(OC)c1OCc1noc(CC2CCCC2)n1 | -14% | 2.25 |
| CN(CCCC#N)Cc1cccc(C#N)c1 | -13% | 1.29 |
| COc1ccc(CN2C[C@H]3CN(Cc4cccc(C)n4)CCN3C2=O)cc1 | 3% | -0.44 |
